The campaign covered roughly 48,000 compounds. About 120 (0.25%) were called active. Not shown: some 4% with an inconclusive outcome. The call rests on the fitted dose curve; in most records, active means well fitted activation curve with a large enough effect; inconclusive means small, poorly fitted or top-dose-only effect, or another doubt; inactive means no such curve, though single readings can be large or run the other way. This is a selection; strong and weak results do not stand in their true shares. The source gives no active or inactive call for entries shown without one.
Potency means the concentration at half of the fitted maximal effect.

The assay is described as follows: Primary qHTS for Identification of Small Molecule Activators of Huntingtin-Antisense Promoter Activity. Further: nearly all actives have a fitted effect of over 55% in size. The following applies: HEK293 HTT-AS promoter firefly luciferase reporter, 24 h; activity change, positive = activation: at 57.5 µM (top of the series), percent change from vehicle, -100% = no light. The method in brief:
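Firefly luciferase signal from promoter-reporter HEK293 cells was scaled between vehicle (0%) and zero RLU (-100%). Compounds were tested at final concentrations of up to 57.5 uM over 24 h at 37 degrees C. PTC124 at 50 uM final served as control inhibitor.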
For the compound `Cc1cccc(NS(=O)(=O)c2ccc3oc(=O)c4ncn(C)c4c3c2)c1C`, the activity change, positive = activation was -14.1%. Take `CC(C)c1nn(-c2c(Cl)cccc2Cl)c2nc(Cc3ccc(OCCO)cc3)[nH]c(=O)c12`: the “activity change, positive = activation” value was inactive: -41.7%. Regarding `Cc1cccc(CNC(=O)Cn2nc(C)n3c(cc4cc(F)ccc43)c2=O)c1`, the activity change, positive = activation is -10.2%.

`COc1ccc2c(c1)CCc1c(C(=O)Nc3ccc(F)c(Cl)c3)noc1-2`: the activity change, positive = activation came to 35.1%. With `COc1ccc(S(=O)(=O)N(CCc2ccccc2)CC(=O)Nc2ccc(C)c(C)c2)cc1OC`, the activity change, positive = activation was -30.8%.

Take `O=C(Nc1cccc(-c2nc3ccccc3o2)c1)c1ccc(-c2ccc(Br)cc2)o1`: the activity change, positive = activation was 2.67%. As to `O=S(=O)(Nc1ccc(-c2ccc(N3CCCC3)nn2)cc1)c1ccc(Cl)cc1`, the activity change, positive = activation was determined as 3.86%. On to `CCOC(=O)c1cccc(NC(=O)CC2C(=O)N(c3ccc(OC)cc3)C(=O)N2C2CCCC2)c1` (stereo unspecified), for which the activity change, positive = activation is -15.1%. Take `COC(=O)CN1C(=O)CSc2ccc(S(=O)(=O)Nc3cccc(C)c3C)cc21`: the activity change, positive = activation is -24.2%. With `CCOc1ccc(CNC(=O)c2cc3c(=O)n(Cc4cccs4)ccc3nc2C)cc1`, the activity change, positive = activation was -20%. In the case of `CCc1c(C)sc(NC(=O)c2cc(-c3ccc(OC)cc3)on2)c1C#N`, the activity change, positive = activation was -6.35%.

For the compound `CCOc1ccc(CCNC(=O)CSc2n[nH]c(-c3ccccc3)n2)cc1OCC`, the “activity change, positive = activation” value is inactive: -11.9%.

Consider `Cc1ccc(O)c(NC(=O)c2cc(-c3ccc4c(c3)OCO4)on2)c1`, for which the activity change, positive = activation was determined as 64.2%.

As to `CCCOC(=O)c1c(NC(=O)C2c3ccccc3Oc3ccccc32)sc2c1CCCC2`, the activity change, positive = activation was -2.8%.

For `Cc1c(NC(=O)c2cc(-c3cccc(O)c3)on2)c(=O)n(-c2ccccc2)n1C`, the activity change, positive = activation was -20.3%.

For `Cc1ccc(NC(=O)CSc2nnc3[nH]c(=O)cc(-c4ccccc4)n23)cc1Cl`, the Potency is active: 14.1 µM. In the case of `CCCCOc1ccc(S(=O)(=O)Nc2ccc(-c3ccc(N4CCC(C)CC4)nn3)cc2)cc1`, the activity change, positive = activation came out at 4.29%. For `CCc1nn(CC(=O)NC(C)CCc2ccccc2)c(=O)c2cc3c(OC)cccc3n12` (stereo unspecified), the activity change, positive = activation is -0.363%. `Cc1cccc(-n2ncc3c(N4CCCC(C)C4)ncnc32)c1` (stereo unspecified): the “activity change, positive = activation” value was inactive: -63.2%. `CCc1c(C)c2cc3c(c(C)c2oc1=O)OCN(CCc1ccc(OC)c(OC)c1)C3`: the activity change, positive = activation is -20.2%. As to `COc1ccc2[nH]cc(CCNC(=O)Nc3cc(C)cc(C)c3)c2c1`, the “activity change, positive = activation” value was inactive: 7.14%.

For `COc1ccccc1CNC(=O)C1CCN(S(=O)(=O)Cc2ccccc2)CC1`, the activity change, positive = activation is 0.588%. `COc1cc(C2CC(=O)c3c([nH]c(C(=O)OC4CCCC4)c3C)C2)cc(OC)c1OC` (stereo unspecified): the “activity change, positive = activation” value is inactive: -54%. For `COc1ccc(CCNc2oc(COc3cccc(C)c3)nc2C#N)cc1OC`, the “activity change, positive = activation” value was inactive: -31.9%. Same read-out and setting: to `CCCc1cc(=O)[nH]c(Nc2ccccc2O)n1` belongs 4.27%; to `Cc1nn(-c2ccc(N3CCCC3)nn2)c(C)c1CCC(=O)NCc1ccccc1`, 1.25%; to `Cc1nn(-c2ccc(N3CCCC3)nn2)c(C)c1CCC(=O)Nc1ccccc1`, 5.5%. Turning to `CCOC(=O)c1ccc(N2CCN(c3cc(Cl)ccc3C)CC2)c(NC(=O)Nc2ccc(OCC)cc2)c1`, the activity change, positive = activation was -1.59%. Same read-out and setting: to `CCOC(=O)c1ccc(N2CCN(c3ccc(F)cc3)CC2)c(NC(=O)Nc2ccc(CC)cc2)c1` belongs 15%; to `O=C1C(=O)N(C2CCN(C(=O)c3ccccc3F)CC2)CCN1Cc1ccc(F)cc1`, 2.22%; to `CC(C)OCc1cc(CN2CCN(c3cccc(C(F)(F)F)c3)CC2)c(O)c2ncccc12`, inactive: -32.8%. With `CCOc1ccc(S(=O)(=O)Nc2cccc(-c3ccc(N4CCC(C)CC4)nn3)c2)cc1`, the activity change, positive = activation was determined as 35.7%. The same measure, in the same setting: to `CCOc1ccc2ncc3c(-c4cccc(OC)c4)nn(-c4ccccc4)c3c2c1` belongs inactive: -28.3%; to `CCOC(=O)c1nc(NCc2ccc(Cl)cc2)c2c(C)noc2n1`, inactive: -18.7%. `Cc1c(C)c2cc3c(c(C)c2oc1=O)OCN(CCc1ccc(F)cc1)C3`: the activity change, positive = activation was -8.52%. Turning to `COC(=O)c1ccc(NC(=O)CC2C(=O)N(c3ccccc3)C(=O)N2Cc2ccc(F)cc2)cc1` (stereo unspecified), the activity change, positive = activation was -18.8%. Take `O=C(Nc1cccc(Cl)c1)C1CCN(S(=O)(=O)Cc2ccccc2)CC1`: the activity change, positive = activation is -4.36%. In the case of `COc1ccc(C2(N3CCN(c4cccc(C)c4C)CC3)C(=O)c3ccccc3C2=O)cc1`, the activity change, positive = activation was found to be 0.291%.

As to `Cc1ccc(S(=O)(=O)N2CCCc3cc(NS(=O)(=O)c4ccc(C)c(C)c4)ccc32)cc1`, the “activity change, positive = activation” value is inactive: -26.3%. In the case of `COc1ccc(C2=C(N3CCN(c4cc(C)ccc4C)CC3)c3ccccc3C2=O)cc1`, the activity change, positive = activation is 3.8%.

For the compound `COc1ccc(Nc2nnc(-c3ccc(C)c(S(=O)(=O)NCCO)c3)c3ccccc23)cc1C(N)=O`, the activity change, positive = activation was -1.02%. On to `Fc1ccc(C(NCCc2ccccc2)c2nnc(-c3ccccc3Cl)o2)cc1` (stereo unspecified), for which the activity change, positive = activation was -14.8%. As for `CC(C)c1cc(C(=O)NCc2ccccc2)no1`, the activity change, positive = activation worked out at 72.1%. Still for that read-out and setting: to `Cc1c(NC(=O)c2sc3ccccc3c2Cl)cccc1-c1nc2ccccc2o1` belongs 8.59%; to `O=S(=O)(Nc1ccc(-c2ccc(N3CCCC3)nn2)cc1)c1ccc(Br)cc1`, -2.15%.

Regarding `COc1ccc(OCc2nnc(-c3ccccc3)o2)cc1`, the activity change, positive = activation amounted to 34.3%.

Consider `COc1ccc(-c2cc(C(=O)Nc3c(C)nn(Cc4ccc(F)cc4)c3C)no2)cc1OC`, for which the activity change, positive = activation was -13.4%. Take `CCOc1ccc(S(=O)(=O)Nc2ccc(-c3ccc(N4CCCC4)nn3)cc2)cc1`: the activity change, positive = activation amounted to 3.42%. On to `CCc1nn(CC(=O)NCc2cccc(OC)c2)c(=O)c2cc3cc(F)ccc3n12`, for which the activity change, positive = activation was 0.0152%. For the compound `CCc1c(C)sc2c1CCN(C(=O)Nc1cc(C)ccc1OC)C2c1ccc(F)cc1` (stereo unspecified), the “activity change, positive = activation” value was inactive: -21.6%.

Take `Cc1cncn1CCc1nc2c3ccccc3nc(SCC(=O)Nc3ccc(F)cc3)n2n1`: the “activity change, positive = activation” value was inactive: 7.13%. On to `COc1cccc(NC(CNS(=O)(=O)c2ccc(Cl)cc2)c2ccccc2)c1` (stereo unspecified), for which the “activity change, positive = activation” value was inactive: -41.4%. For `Cn1c(CNC(=O)CSc2nc(-c3cccc(Cl)c3)nc3cc(=O)[nH]n23)nc2ccccc21`, the activity change, positive = activation stood at 1.2%.

As to `O=C(CN1C=NS(=O)(=O)c2ccc(C(F)(F)F)cc21)Nc1cccc(C(F)(F)F)c1`, the “activity change, positive = activation” value was inactive: -30.3%.

Take `O=C(c1noc2c1CCCCC2)N1CCN(c2cccc(C(F)(F)F)c2)CC1`: the “activity change, positive = activation” value was inactive: -39.4%. As for `CCCCC(=O)Oc1ccc2oc(-c3ccc(OC)cc3)cc(=O)c2c1`, the Potency is active: 2 µM. For the compound `Cc1ccc(F)cc1NC(=O)CCc1c(C)nn(-c2ccc(N3CCCC3)nn2)c1C`, the activity change, positive = activation was -3.14%. As for `CCCCN(CC)C(=O)c1cc2c(=O)n3cccc(C)c3nc2n1C`, the “activity change, positive = activation” value is inactive: -7.15%. Turning to `CCOc1ccc(C2C(=O)N(C3CCCCCC3)CC(=O)N2CCc2ccc(OC)c(OC)c2)cc1OC` (stereo unspecified), the activity change, positive = activation was -11.1%.

With `Cc1c(CCC(=O)NCc2cccc(Cl)c2)c(=O)oc2c(C)c(O)ccc12`, the activity change, positive = activation was -13.8%. Still for that read-out and setting: to `Cc1nn(-c2ccc(N3CCCC3)nn2)c(C)c1CCC(=O)Nc1ccc(F)cc1F` belongs -4.05%.

Values taken from PubChem BioAssay AID1508624 (National Center for Advancing Translational Sciences (NCATS), 2021).
